Laboratory results taken from PubChem BioAssay AID504832 (National Center for Advancing Translational Sciences (NCATS), 2011).
Screen size: about 310,000 compounds; about 18,000 (5.8%) were called active. The inconclusive results got no clear call from the source; some entries with a clear call stand among them for comparison. Calls come from the whole dose curve; as a rule, active = well fitted inhibition curve with a large enough effect; inconclusive = small, poorly fitted or top-dose-only effect, or another doubt; inactive = no such curve, though single readings can be large or run the other way. No potency is given beside an inconclusive call; the fits are too rough.

test: Primary qHTS for delayed death inhibitors of the malarial parasite plastid, 48 hour incubation; settings: P. falciparum luciferase growth in erythrocytes; series mostly up to 28.7 µM; activity change, negative = inhibition: at the top concentration
Method in brief: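 In quantitative HTS format, infected erythrocytes bearing luciferase-reporter parasites were treated for a single generation at 37 C. Luminescence after adding detection reagent served as the growth measure.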
% is set by controls: 0 for no effect and ±100 for the full control effect; potency is the fitted concentration of half-maximal effect; tags give direction and shape of the fitted curve.

| Structure (SMILES) | activity change, negative = inhibition | Potency |
| --- | --- | --- |
| CC(Sc1ccc(Cl)cc1)C(=O)N(C)CC(=O)Nc1ccc(N2CCOCC2)cc1 (configuration not stated) | inactive: -1.91% |  |
| Cc1nnc2sc(SCC(=O)N3CCC(C)CC3)nn2c1=O |  | inconclusive [inhibitor, full curve] |
| COc1cccc(OCC(=O)Nc2cc(Cl)ccc2Oc2ccccc2)c1 |  | inconclusive [inhibitor, single point] |
| CCCC(=O)N1CCN(Cc2nc3cc([N+](=O)[O-])ccc3n2C)CC1 | inactive: 8.29% |  |
| CCOC(=O)N1CCN(C(=O)c2ccc(Cl)c(NC(=O)c3cccs3)c2)CC1 |  | active: 10.4 µM |
| Cc1cccc(/C=C(\C#N)C(=O)Nc2ccccn2)c1 | inactive: 13% |  |
| COc1ccc(-c2noc(C3CCCN(C(=O)c4ccccc4C)C3)n2)cc1 (configuration not stated) |  | inconclusive [inhibitor, partial curve, poor fit] |
| CCOC(=O)c1ccc(NC(=O)NCc2c(C)nn(CC)c2C)cc1 |  | inconclusive [inhibitor, single point] |
| Cc1ccc(Nc2nnc(C)c(=O)[nH]2)cc1 |  | inconclusive [inhibitor, single point] |
| Cc1cc(N)n2nc(C)c(-c3ccccc3)c2n1 |  | inconclusive [inhibitor, partial curve, poor fit] |
| CC(c1ccccc1)N1C(=O)/C(=C/c2ccncc2)SC1=S (configuration not stated) |  | inconclusive [inhibitor, single point] |
| COC(=O)C1=C(c2ccc(OC(F)(F)F)cc2)C[C@@H]2CC[C@H]1N2C(=O)N1CCOCC1 |  | inconclusive [inhibitor, single point] |
| CC(=O)c1cccc(NC(=O)N2CCCC2C(=O)NCc2ccc(C)cc2)c1 (configuration not stated) | inactive: 6.4% |  |
| S=c1[nH]nc(Cn2c(-c3ccccn3)nc3ccccc32)n1-c1ccc2c(c1)OCCO2 | inactive: 43.6% |  |
| Cc1cc(NCCCO)n2c(nc3ccccc32)c1C#N |  | active: 10.4 µM |
| Cc1nc(Nc2nc(CSc3nc4ccccc4[nH]3)cc(=O)[nH]2)nc2ccccc12 |  | inconclusive [inhibitor, single point] |
| Cc1ccc(N2C(=O)[C@@H]3[C@H](C2=O)[C@H]2C=C(C(=O)c4ccccc4)C=CN2[C@@H]3C(=O)c2ccc(Cl)cc2)cc1 |  | inconclusive [inhibitor, partial curve, poor fit] |
| COc1cccc(CN(CC(=O)NCC2CCCO2)C(=O)CCC(=O)Nc2cc(C)on2)c1 (configuration not stated) |  | inconclusive [inhibitor, partial curve, poor fit] |
| O=C(Nc1cccc(F)c1)Nc1cccc(Cl)c1 |  | inconclusive [inhibitor, partial curve, poor fit] |
| CC(=O)c1ccc(NC(=O)CC2Nc3cccc4cccc(c34)NC2=O)cc1 (configuration not stated) |  | inconclusive [inhibitor, partial curve] |
| O=C1CC(Nc2ccc3ccccc3c2)C(=O)N1Cc1ccccc1 (configuration not stated) | inactive: -21.2% |  |
| CCOC(=O)C1=NNC(C(=O)c2ccc(OC)cc2)C1c1ccccc1 (configuration not stated) |  | inconclusive [inhibitor, single point] |
| COc1ccc(OC)c(/C=N/NC(=O)c2cc3c(OC)cc(OC)cc3[nH]2)c1 |  | inconclusive [inhibitor, single point] |

| Structure (SMILES) | activity change, negative = inhibition | Potency |
| --- | --- | --- |
| O=C(COc1cccnc1[N+](=O)[O-])c1c[nH]c2ccccc12 | inactive: 6.21% |  |
| Cc1ccc(S(=O)(=O)n2ccc3cccnc32)cc1 |  | inconclusive [inhibitor, single point] |
| COc1ccc(OC)c(C2(O)CSC(=Nc3cccnc3)N2Cc2ccco2)c1 (configuration not stated) |  | active: 11.7 µM |
| O=C(Nc1ccc(NC(=O)N2CCN(c3ccccc3O)CC2)cc1)N1CCN(c2ccccc2O)CC1 |  | inconclusive [inhibitor, partial curve] |
| COC(=O)c1ccc(OCC(O)CN2CCN(C(=O)c3ccco3)CC2)cc1 (configuration not stated) |  | inconclusive [inhibitor, full curve] |
| COc1ccc(/C=C2\SC(=S)N(CCC(=O)NC3C=CS(=O)(=O)C3)C2=O)cc1 (configuration not stated) |  | inconclusive [inhibitor, partial curve, poor fit] |
| Cc1ccc(NC2CCCN(C(=O)CCCN3CCCCC3=O)C2)cc1C (configuration not stated) |  | inconclusive [inhibitor, single point] |
| CCc1c(C#N)c(SCc2c(C)noc2C)nc2c1C(=O)CC(C)(C)C2 |  | inconclusive [inhibitor, partial curve] |
| COc1ccc(C(=O)NC(=S)N(C)C2CCCCC2)cc1Br |  | inconclusive [inhibitor, full curve, poor fit] |
| COc1cc2c(cc1OC)C(COc1ccc([N+](=O)[O-])cc1)N(C(C)=O)CC2 (configuration not stated) |  | inconclusive [inhibitor, single point] |
| COc1cccc(/C=N/N2CCN(c3ccncc3S(=O)(=O)N3CCCCC3)CC2)c1 |  | inconclusive [inhibitor, single point] |
| CN(Cc1ccco1)C(=O)c1ccc(N2CCCC2=O)cc1 | inactive: 34.5% |  |
| COCCNC(=O)c1ccc2c3n(nc2c1)-c1ccccc1CO3 | inactive: 221% |  |
| Cc1nn(CCOc2ccc(Br)cc2)c(C)c1[N+](=O)[O-] |  | inconclusive [inhibitor, full curve, poor fit] |
| O=C(CSc1ncccn1)NCc1ccc(F)cc1 | inactive: 59.4% |  |
| O=C(CCc1nnc2ccc(NCc3ccccc3)nn12)N1CCC2(CC1)OCCO2 |  | inconclusive [inhibitor, partial curve] |
| CCN(CC(=O)Nc1ccc(OC)cc1)CC(=O)Nc1ccc2c(c1)OCO2 |  | inconclusive [inhibitor, single point] |
| O=C(CCC1CCCN(C(=O)C2=CCCCC2)C1)N1CCN(c2ccccn2)CC1 (configuration not stated) |  | inconclusive [inhibitor, partial curve] |
| CC(C)c1ccc(/C=C/C(=O)NC(=S)NN2CCOCC2)cc1 | inactive: 9.66% |  |
| Oc1cccc2c(-c3nn[nH]n3)ccnc12 |  | inconclusive [inhibitor, single point] |
| COc1ccc(CNC(=O)c2cnc3cc(C)ccn3c2=O)cc1 |  | inconclusive [inhibitor, single point] |
| COc1ccc(CC(=O)Nc2nc(-c3ccncc3)cs2)cc1 |  | inconclusive [inhibitor, partial curve, poor fit] |
| Cc1nn(Cc2ccccc2Cl)c(Cl)c1/C=C/C(=O)OCC(=O)NC1CCS(=O)(=O)C1 (configuration not stated) |  | inconclusive [inhibitor, partial curve] |

| Structure (SMILES) | activity change, negative = inhibition | Potency |
| --- | --- | --- |
| CC(NC(=O)c1cc([N+](=O)[O-])cc([N+](=O)[O-])c1)C1CC2CCC1C2 (configuration not stated) |  | inconclusive [inhibitor, single point] |
| CCN(CC)S(=O)(=O)c1ccc(C)c(NC(=O)COC(=O)C=C(C)C)c1 | inactive: 6.09% |  |
| COc1cc2c(cc1NC(=O)c1cc(-c3cccnc3)nc3ccc(C)cc13)oc1ccccc12 |  | inconclusive [inhibitor, single point] |
| COc1cccc(N2CCN(CC(=O)Nc3ccc(SC(F)F)cc3)CC2)c1 | inactive: 6.18% |  |
| CC1CC(C)CN(CCCNC(=O)CN2C(=O)CSc3ccc(S(=O)(=O)N4CCCCC4)cc32)C1 (configuration not stated) |  | inconclusive [inhibitor, single point] |
| N#Cc1c(N)nc2c(c1-c1ccc3c(c1)OCO3)CCc1ccccc1-2 |  | active: 4.15 µM |
| CC1CN(C(=O)c2ccc(NS(=O)(=O)c3ccc(F)cc3)cc2)CC(C)O1 (configuration not stated) | inactive: 5.28% |  |
| C/C(=N\NC(=O)c1ccncc1)c1cc2ccccc2o1 | inactive: 0% |  |
| Cc1ccc(/C=N/N2CCN(c3ccccn3)CC2)cc1 | inactive: 85.7% |  |
| O=C(COc1ccc(Br)cc1Cl)N1CCN(c2ncccn2)CC1 |  | inconclusive [inhibitor, partial curve, poor fit] |
| O=C(Cc1csc(NC(=O)Nc2cccc(Cl)c2)n1)NCc1ccccn1 | inactive: 30% |  |
| COc1ccc(-c2c(C)nn3c(N4CCC(C(=O)NCCN(C)C)CC4)cc(C)nc23)cc1OC |  | active: 10.4 µM |
| CN(CC(=O)Nc1cccc(F)c1)C(=O)CCCc1c[nH]c2ccccc12 |  | inconclusive [inhibitor, partial curve, poor fit] |
| NC(=O)C1CCN(C(=O)c2ccccc2SCC(=O)NCC2CCCCC2)CC1 |  | inconclusive [inhibitor, single point] |
| CCc1ccc2nc(N(CCN(C)C)C(=O)/C=C/c3cccs3)sc2c1 |  | inconclusive [inhibitor, single point] |
| O=C(NCCN1CCN(S(=O)(=O)c2ccc([N+](=O)[O-])cc2)CC1)C(=O)Nc1ccccc1 | inactive: -12.8% |  |
| c1ccc(OCc2nn3c(-c4cccnc4)nnc3s2)cc1 |  | inconclusive [inhibitor, partial curve, poor fit] |
| OC(CNC1Cc2ccccc2C1)COc1ccc(Cl)cc1 (configuration not stated) |  | inconclusive [inhibitor, partial curve] |
| CN(C)S(=O)(=O)c1cccc(NC(=O)CSc2nc3ccccc3n2-c2ccccc2)c1 |  | inconclusive [inhibitor, single point] |
| O=C(O)/C=C/C(=O)NNC(=O)c1ccc(Cl)cc1Cl |  | inconclusive [inhibitor, single point] |
| CC1Cc2cc(S(=O)(=O)N3CCN(c4ccc(Cl)cc4)CC3)ccc2N1C(=O)C1CC1 (configuration not stated) |  | inconclusive [inhibitor, partial curve, poor fit] |
